These results are taken from PubChem BioAssay (NCI).

“And” between values parts separate entries of the source, which are not always exact repeats. Equal entries are not always repeated.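 Five compound concentrations were applied to cells in 96-well plates for 48 hours; endpoints were derived by simple linear interpolation of the resulting dose-response curve. At the GI50, growth is halved. TGI is the concentration that stops growth completely.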 Where only a bound is given, the exact number is not on record here.

This test relates to NCI-H322M lung. Briefly: growth of human tumour cells (NCI), 48 h.
Regarding `ClCc1nc2cc(Cl)ccc2o1`, the TGI came out at 27.3 µM.

On to `O=C(Nc1ccc(-n2cc(-c3ccncc3)c(-c3ccc(O)c(Cl)c3)n2)cc1)c1ccc(Cl)c(Cl)c1`, for which the GI50 was more than 32.5 µM and the TGI is more than 32.5 µM.

Molecule `OCC1OC(NC(=S)NCSCCC(F)(F)C(F)(F)C(F)(F)C(F)(F)C(F)(F)C(F)(F)F)C(O)C(O)C1O` (stereo unspecified) displayed a TGI of more than 100 µM.

Turning to `N/C(=N/O)c1cn(C2OC(CO)C(O)C2O)c2ncnc(NO)c12` (stereo unspecified), the TGI is more than 83 µM.

`O=C(NCCS(=O)(=O)N1C(=O)C2CCCN2C(=O)[C@@H]1Cc1ccccc1)OCc1ccccc1` (stereo partly specified) showed a TGI of more than 100 µM.

Take `COc1cccc(/C=N/[N-]C(N)=O)c1[O-].[OH3+].[Zn+2]`: the TGI is more than 100 µM.

Regarding `COc1ccc(C2=NN(c3ccc(S(N)(=O)=O)cc3)C(c3ccc(Cl)cc3)C2)c(O)c1` (stereo unspecified), the GI50 is 5.23 µM and the TGI came out at 38.8 µM.

With `c1ccc2c(-c3ccnc(-c4c[nH]c5ccccc45)n3)c[nH]c2c1`, the TGI was 29.3 µM.

`Nc1cccc2cc(S(=O)(=O)Nc3ccc(C(=O)O)cc3)ccc12` registered a TGI of more than 100 µM.

`CC(=O)N(CCc1ccccc1)C(C)(C#N)c1ccccc1` (stereo unspecified) gave a TGI of more than 100 µM.

For `O=[N+]([O-])c1ccc([I+]c2ccccc2)cc1`, the TGI came out at 20.6 µM.

`S=c1nc(/C=C/c2ccc(Cl)c(Cl)c2)[nH][nH]1` had a TGI of more than 100 µM.

As to `Cc1ccc(S(=O)(=O)OC(C=O)C(O)C(O)COC(c2ccccc2)(c2ccccc2)c2ccccc2)cc1` (stereo unspecified), the TGI was 29.3 µM.

In turn, `Nc1ncn([C@@H]2C=C(CO)C(O)C2O)c(=O)n1` (stereo partly specified) showed a TGI of more than 100 µM.

`CCOc1ccc(NC(=O)/C(=C/c2ccccc2)C(C)=O)cc1` had a TGI of 27.8 µM.

`Nc1nc(Cl)c(N)c(NCC2(CO)CC(O)C2)n1` (stereo unspecified): the TGI is more than 100 µM.

For `CCOC(=O)C12CN(C34CC5CC(CC(C5)C3)C4)CC(C(=O)OCC)(C1=O)C(c1ccccc1)OC2c1ccccc1` (stereo unspecified), the TGI was more than 100 µM.

On to `COc1ccc(-c2c(C(=O)Nc3ccccc3)c(-c3ccccc3)n(C3OC(CO)C(O)C(O)C3O)c(=S)c2C#N)cc1` (stereo unspecified), for which the TGI is more than 100 µM.

In turn, `O=C(CN1c2ccccc2Sc2ccccc21)n1cnc2ccccc21` gave a TGI of more than 100 µM.

Turning to `CC(=O)/C(=C\n1c(=S)[nH]c2ccc([N+](=O)[O-])cc21)C(=O)Nc1ccccc1C`, the TGI is more than 100 µM.

On to `COc1ccc2c(c1)OCC1Cc3cccc(OC)c3OC21` (stereo unspecified), for which the TGI is more than 100 µM.

Turning to `O=[N+]([O-])c1ccc2nc(/C=C(\O)c3ccccc3)c(/C=C(\O)c3ccc(Cl)cc3)nc2c1`, the TGI is more than 100 µM.

`COc1ccc(C(=O)Nc2ccccc2)cc1[N+](=O)[O-]`: the TGI was more than 100 µM.

Turning to `CCN1C(=O)N(CC)C2C1NN=c1s/c(=C\c3ccc([N+](=O)[O-])cc3)c(=O)n12` (stereo unspecified), the GI50 is 0.73 µM and the TGI was more than 100 µM.

`COc1cc(/C=C2\N=C(c3ccccc3)N(/N=C/c3cc4cc(C)ccc4nc3Cl)C2=O)ccc1O` yielded a TGI of more than 100 µM.

As to `C[N+](C)(C)C(Cc1c[nH]c(=S)[nH]1)C(=O)O` (stereo unspecified), the TGI was more than 100 µM.

The molecule `Nc1nc(SCC(=O)c2ccccc2)nc2nc3c(c(-c4ccccc4)c12)CCCC3` yielded a TGI of 85.2 µM.

Molecule `CC(=O)NC1C(OCc2ccccc2)OC(CO)C(O)C1OCC(=O)NC(C)C(=O)NC(CCC(=O)Nc1ccc2c(c1)CN1C(=O)c3ccccc3C1=N2)C(N)=O` (stereo unspecified) showed a TGI of more than 100 µM.

In turn, `O=C1/C(=C/c2ccccc2Cl)COc2ccccc21` returned a TGI of 40.1 µM.

In the case of `O=C(O)Cc1ccccc1`, the GI50 is more than 1000 µM and the TGI is more than 2000 µM.

Take `N/C(=N\N=C=C1C(=O)Nc2ccc(F)cc21)NO`: the TGI was more than 100 µM.

`COC(=O)C12C3C=CC(O3)C1C1C=CC2O1` (stereo unspecified) gave a TGI of more than 100 µM.

`CSc1nc(NC2OC(CO)C(O)C(O)C2O)c(N)c(=O)n1C` (stereo unspecified) gave a TGI of more than 100 µM.

For the molecule `CC(=O)NNc1nc(C)c(C(/C=C/c2ccc3c(c2)OCO3)=N/NC(=O)c2ccncc2)s1`, the TGI was more than 100 µM.

The molecule `CC(=O)Nc1ccccc1S(=O)(=O)c1c(-c2c(C)c(Cl)c(C)c(Cl)c2C)noc1C` came in with a TGI of more than 100 µM.

`C=C1CCC2C3(C)COC(c4cccc(Cl)c4)OC3CCC2(C)C1/C=C/C1=CCOC1=O` (stereo unspecified): the GI50 is more than 100 µM and the TGI is more than 100 µM.

`Cc1c(/C=N\NC(=S)N(C)CCN(C)C(=S)N/N=C\c2c(C)n(C)n(-c3ccccc3)c2=O)c(=O)n(-c2ccccc2)n1C` displayed a TGI of more than 100 µM.

Consider `c1ccc2c(c1)SCCCSCCCS2`, for which the TGI is more than 100 µM.

In the case of `CCOP(=O)(OCC)OC1CC(n2cnc3c(N(CC)CC)ncnc32)OC1CO[Si](C)(C)C(C)(C)C` (stereo unspecified), the TGI turned out to be 32.4 µM.

For `O=C1NC(c2ccccc2)C1N(Cc1ccccc1)Cc1ccccc1` (stereo unspecified), the TGI is more than 100 µM.

For `COc1ccc(C(NCCNC(c2ccc(OC)c(OC)c2)c2cc3c(cc2O)OCO3)c2cc3c(cc2O)OCO3)cc1OC` (stereo unspecified), the TGI was 22.3 µM.

For `COC(=O)C1(Cc2ccccc2C)Cc2ccc(C)cc2C1=O` (stereo unspecified), the TGI was more than 100 µM.

As to `COc1ccc(/C=N/Nc2nc3ccccc3c(=O)n2-c2ccccc2)cc1`, the TGI was more than 100 µM.

For `c1ccc(COc2ccc(Nc3ncnc4ccc(-c5ccco5)cc34)cc2)cc1`, the GI50 was 11 µM and the TGI was more than 25 µM.

For the molecule `O=C1C(c2c(O)n(-c3ccccc3)c3ccccc23)=Nc2ccccc21`, the TGI is more than 100 µM.

For the molecule `COC(=O)[C@@]12C3=NO[C@]1(C(=O)OC)C(O[Si](C)(C)C(C)(C)C)C1OC(C)(C)OC1[C@@H]2[C@@H](OCc1ccccc1)CC3` (stereo partly specified), the TGI was more than 100 µM.

Molecule `Cc1cc2c(cc1-c1cc3c(cc1C)C(C(C)C)=C(O)C(=O)/C3=C\Nc1cccc3c(N)cccc13)/C(=C/Nc1cccc3c(N)cccc13)C(=O)C(O)=C2C(C)C` gave a TGI of more than 100 µM.

On to `Fc1cccc(C=NC23CC4CC(CC(C4)C2)C3)c1`, for which the TGI was more than 100 µM.

In the case of `C=C(CNCCc1ccc(O)cc1)[C@@H]1CC[C@]2(CO)CC[C@]3(C)[C@H](CC[C@@H]4[C@@]5(C)CCC(NCCO)C(C)(C)[C@@H]5CC[C@]43C)[C@@H]12` (stereo partly specified), the GI50 is 2 µM and the TGI is 3.64 µM.

The molecule `O=Cc1cc(O)ccc1Br` returned a TGI of more than 92.8 µM.

In turn, `COc1ccc2c(c1)CC[C@@H]1C2CC[C@]2(C)C(=O)N(C)C(=O)CC12` (stereo partly specified) came in with a TGI of more than 100 µM.

`CC(=O)Nc1ccc2c(c1)C(=Nc1ccc(C(=O)O)cc1)c1ccccc1-2` yielded a TGI of more than 100 µM.

In turn, `CN(N=O)C(N)=NC(=O)c1ccccc1` had a TGI of more than 100 µM.

Turning to `NC(=S)NS(=O)(=O)c1ccc(F)cc1`, the TGI was more than 100 µM.

On to `CC1(C)CC[C@]2(C(=O)O)CCC3(C)C(=CCC4[C@@]5(C)CC[C@H](OC6OCC(O)C(O)C6OC6OC(CO)C(O)C(O)C6O)C(C)(C)C5CC[C@]43C)C2C1` (stereo partly specified), for which the TGI stood at 4.08 µM.

The molecule `CNS(=O)(=O)NN(C)S(=O)(=O)c1ccc(C)cc1` returned a TGI of more than 100 µM.

For the molecule `O=[N+]([O-])c1ccc(N=Nc2c(O)[nH]c3ccc(Br)cc23)c([N+](=O)[O-])c1`, the TGI was 32.4 µM.

With `COC1(CCO)CC=CCC1(CCO)OC` (stereo unspecified), the TGI is more than 100 µM.

Turning to `CC1(C)OCC(C2OC(On3nnc4ccc(Cl)cc43)C3OC(C)(C)OC23)O1` (stereo unspecified), the TGI is more than 100 µM.

Turning to `CN(C)CC1CCCC(CN(C)C)C1=O` (stereo unspecified), the GI50 was 23.9 µM and > 48 µM; the TGI is 39 µM and > 78.7 µM.

Regarding `COC1C2c3ccccc3C(C#N)(Cc3ccc4c(c32)OCO4)N1C(=O)c1ccccc1` (stereo unspecified), the TGI was more than 100 µM.

In turn, `CNC1=C(C)C(=O)C2=C(C1=O)C(COC(N)=O)C1(OC)C3NC3CN21` (stereo unspecified) had a TGI of 2.31 µM.

`Cc1ccc(NC(=O)CCC(=O)C2CC(=O)CCC2=O)cc1C` (stereo unspecified) came in with a TGI of more than 100 µM.

Molecule `CN(C)c1ccc(C=Nc2ccc(-c3nc4ccccc4o3)cc2)cc1` showed a TGI of more than 100 µM.

Regarding `C[CH2][Sn]([CH2]C)([O]C(=O)c1cc(OC)c(OC)c(OC)c1)[O][Sn]([CH2]C)([CH2]C)[O]C(=O)c1cc(OC)c(OC)c(OC)c1`, the GI50 was more than 100 µM and the TGI is more than 100 µM.

`NC(N)=NCCCS(=O)(=O)Nc1ccc(Nc2c3ccccc3nc3cc([N+](=O)[O-])ccc23)cc1` registered a TGI of 32.7 µM.

For `CCN1N=CSC12C(=O)N(c1ccccc1)C(=O)N2c1ccccc1` (stereo unspecified), the TGI is more than 100 µM.
